# Reference: the supplement of paper PMC11417369
# ± gives the standard deviation of the averaged measurements. Some of the results follow.
# Tested on: PfAP2-EXP AP2 domain (GST-tagged)
# Assay: gcPBM binding intensity (ln(normalized median fluorescence intensity)); higher = stronger DNA binding
# How it was run: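 GST-tagged P. falciparum DNA-binding domains produced in E. coli were incubated for 1 h on an Agilent 4 × 180k array of primer-extended double-stranded 36-bp intergenic genomic probes with negative controls. Binding intensity is the highest Masliner-normalised natural-log median intensity across replicate spots of either probe orientation, with bound protein detected by Alexa488 anti-GST antibody at 488 nm.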
row,Sequence,gcPBM binding intensity (ln)
1,ATTAAATACTTCGATTGTACAATTTTTTTTTTTTTT [XGTACX_site832],8.59 ± 0.59
2,CATATTTTTAAATACACACACATAAAAAAAAAAAAA [CACACA_site1095],8.54 ± 0.46
3,TTTTTTTTAAAAAACACACACCTAAACAAGATATTT [CACACA_site6541],8.55 ± 0.51
4,AAAAATATAAACTGCACACACACAAAAAAAGAAAAA [CACACA_site648],8.64 ± 0.57
5,AAATAAAAAAGTAGTACACACTTCACGATATTTTTT [CACACA_site6015],8.54 ± 0.35
6,TTATTATAATCATTAGTGCATATATTATTTTTATAT,8.63 ± 0.092
7,TATATACATATATGTACACACATTACAGATGTACAT [CACACA_site966],8.93 ± 0.36
8,AATCTAATATAATGCACACATAAAAAAAAAATCAAA [CACACA_site2714],8.56 ± 0.23
9,TATATTTACAATAAAACGTTATTTTTTGTTATTTTC [CACACA_negctrl_site612],8.54 ± 0.38
10,GAAAAAAAAAAAAAAAAAAAAAGGAAAAAAGTGAAA [CACACA_negctrl_site996],8.41 ± 0.66
11,ACGTTTACGTTATTATGTACGTAATATATCATACCT [XGTACX_site5006],8.46 ± 0.4
12,GAATAAATAGACGAGTGTACTTTTTTTTAAAAAAAA [XGTACX_site7880],8.78 ± 0.61
13,ATAAAACAATAAAATTGTACATAAATTGATTATACT [XGTACX_site6723],8.36 ± 0.45
14,AATTAAATTAGAAGCACACACATATTTATATTTATA [CACACA_site7552],8.34 ± 0.45
15,GTATATATTTAAACACGTACACAAAACCCAAAAAAT [XGTACX_site8110],9.19 ± 0.53
16,ATACACTCACTCACACGTACAGACAACGGACGATCA [XGTACX_site1097],8.88 ± 0.63
17,AAATATTTTTTTTCTACACACATACAAATATATATT [CACACA_site5325],8.76 ± 0.73
18,AATAATAACACCGTGGATACACAATAACAAAGAACT [CACACA_negctrl_site532],9.11 ± 0.52
19,TTTCATTTAGCTTTTACACACTATATATCATTGATT [CACACA_site6158],8.88 ± 0.45
20,TGAGAGTTCTCATATGCACACAAAAAACTTTCATTT [CACACA_site7898],8.41 ± 0.37
21,TACATATACATATACACACACACACCCAAATAAATA [CACACA_site1344],8.86 ± 0.51
22,TTGCAACTCTTCAATCGTACACATTATTTATTATAT [XGTACX_site1377],8.87 ± 0.34

row,Sequence,gcPBM binding intensity (ln)
1,TATGTAAAAAATTTAACACACACATATATATATATA [CACACA_site8829],10.2 ± 0.38
2,ATCATAATCATAAAAAGTACAAACGATAAAATAAAT [XGTACX_site3832],9.01 ± 0.52
3,TTACTTAAGAAACACACACACAAAAAAAAAAAAAAA [CACACA_site946],8.2 ± 0.61
4,TTTTTTTCTGTGAGTGCATGTAATAAAATAAATTTA [TGCATGCA_site276],8.84 ± 0.071
5,TTCAAAAATATATAATGTACACAAATATAAAAGAAT [XGTACX_site1944],9.03 ± 0.29
6,TGTTATTTTAAAAAAAAAATTATTAACTTAAAAAAA [CACACA_negctrl_site1641],7.89 ± 0.44
7,TATTTATAATAGTGTACACAATTATAAACTGAATAT [CACACA_site6041],8.76 ± 0.19
8,TATTATTGTCTTTCAAAAAAAAAAAAAAAAAAAAAA [CACACA_negctrl_site1242],7.83 ± 0.27
9,CAACATATATTAATATGTACATATATATAGATATAT [XGTACX_site4107],8.34 ± 0.23
10,TATTATTCATAATTTATCTTTTAAATTAAATCACAA [GTGCAC_negctrl_site288],7.97 ± 0.45
11,TTATTCACTTCTTTTTAAAAAAAAAAAAAAAAAAAA [CACACA_negctrl_site223],7.89 ± 0.37
12,TTGTTAATGGTACGAACACACATATAAAGATGCATA [CACACA_site2044],8.64 ± 0.54
13,ATAATTTGTGGACACACACACACACCGACATATATA [CACACA_site8718],8.81 ± 0.4
14,TTATATGAATTTTAGATTTATAATACAAGAATATTC [CACACA_negctrl_site70],8.01 ± 0.42
15,ATTTCGAATATTAAGTGTACAATATAAATATATAAA [XGTACX_site6674],8.48 ± 0.34
16,AAAAAAAAAAAAAAAAGTACAAATAAAAAAAAAATA [XGTACX_site4814],8.55 ± 0.23
17,TACGTAGCCACACTAACACACACAAATATGCACAAT [CACACA_site8942],8.8 ± 0.36
18,ATATTATATAATATACGTACATATATTATGCATAAA [XGTACX_site7895],8.74 ± 0.39
19,ATTAAATACATTAACACACACACAAATATGTACATA [CACACA_site7372],8.77 ± 0.32
20,AATAGGAAAGATTTTGCATGTGATATAAGTAATTTT [TGCATGCA_site657],8.79 ± 0.28
21,TTTATATGATACACACGTACATATACACATATACAC [XGTACX_site8123],8.9 ± 0.3
22,TATATATATATTTTTGCACACATTTTTTAAGGTACA [CACACA_site2145],9.82 ± 0.11
